pIC50: −log10 of the molar value. Lines with a small IC50 respond at low doses; a fit beyond the top or the lowest dose is shown as a bound at that dose. AUC, from the same fit, is the share of area under the viability curve across the 256-fold dose range; the more sensitive the line, the further below 1. For some assays here: Any top dose called inferred was derived from the fitted curves, not read from the paper. For some assays here: An entry number marks a drug with two screens in the source, which often give different values.
How the values were obtained:
Experiment in all cases: Viability of human cancer cell lines after 72 h of drug (GDSC screen)
CUDC-101 = compound: C#Cc1cccc(Nc2ncnc3cc(OC)c(OCCCCCCC(=O)NO)cc23)c1 [CUDC-101]; conditions: top dose 5.12 µM; top dose inferred
Description: (§1)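 Human cancer cell lines in 384-well plates, medium with 10% serum, drug for 72 h over a 256-fold dose range (nine 2-fold or five 4-fold steps up to the top dose). Adherent lines were fixed and stained with the nucleic acid dye Syto60, suspension lines read with resazurin; signal relative to control wells, capped at 0 and 100%. One two-parameter sigmoid per drug and line, fitted in a mixed model over all curves with the slope shared within a line.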

AC220 = compound: CC(C)(C)c1cc(NC(=O)Nc2ccc(-c3cn4c(n3)sc3cc(OCCN5CCOCC5)ccc34)cc2)no1 [AC220]; conditions: top dose 1.024 µM; top dose inferred
Description: as §1

RDEA119 = compound: COc1cc(F)c(F)c(Nc2ccc(I)cc2F)c1NS(=O)(=O)C1(C[C@H](O)CO)CC1 [RDEA119]; conditions: top dose 5 µM, top dose inferred
Description: as §1

JNK-9L = compound: Fc1cc(-c2ccnc(Nc3ccc(-n4cnc(N5CCOCC5)n4)cc3)n2)cc(N2CCOCC2)c1 [JNK-9L]; conditions: top dose 5.12 µM; top dose inferred
Description: as §1

OSU-03012 = compound: NCC(=O)Nc1ccc(-n2nc(C(F)(F)F)cc2-c2ccc3c(ccc4ccccc43)c2)cc1 [OSU-03012]; conditions: top dose 16 µM; top dose inferred
Description: as §1

5-Fluorouracil = compound: O=c1[nH]cc(F)c(=O)[nH]1 [5-Fluorouracil]; conditions: top dose 32 µM; top dose inferred
Description: as §1

QS11 = compound: OC[C@H](Cc1ccccc1)Nc1nc(Oc2ccc3c(c2)CCC3)nc2c1ncn2Cc1ccc(-c2ccccc2)cc1 [QS11]; conditions: top dose 10.24 µM
Description: as §1

With SW684 (fibrosarcoma, adherent) as the cell line, how does the AUC (CUDC-101) read?
Its AUC is 0.963.

And the pIC50 (CUDC-101)?
The pIC50 was < 5.29.

And the AUC (AC220)?
The AUC was 0.977.

And the pIC50 (AC220)?
Its pIC50 is < 5.99.

And the AUC (RDEA119; screen: GDSC drug entry 1014)?
The AUC was 0.835.

And the pIC50 (RDEA119; screen: GDSC drug entry 1014)?
The pIC50 was < 5.30.

What about the AUC (RDEA119; screen: GDSC drug entry 1526) of the same cell line?
The AUC was 0.859.

And the pIC50 (RDEA119; screen: GDSC drug entry 1526)?
The pIC50 was < 5.30.

And the AUC (JNK-9L)?
The AUC was 0.764.

And the pIC50 (JNK-9L)?
Its pIC50 is 5.56.

And the AUC (OSU-03012)?
The AUC was 0.982.

And the pIC50 (OSU-03012)?
The pIC50 was < 4.80.

What about the AUC (5-Fluorouracil) of the same cell line?
The AUC was 0.982.

And the pIC50 (5-Fluorouracil)?
Its pIC50 is < 4.49.

What about the AUC (QS11) of the same cell line?
Its AUC is 0.725.

What about the pIC50 (QS11) of the same cell line?
The pIC50 was 5.42.

BICR78 (head and neck, adherent) was tested. Which AUC (CUDC-101) did it give?
The AUC was 0.467.

And the pIC50 (CUDC-101)?
The pIC50 was 6.59.

And the AUC (AC220)?
The AUC was 0.978.

What about the pIC50 (AC220) of the same cell line?
Its pIC50 is < 5.99.

And the AUC (RDEA119; screen: GDSC drug entry 1014)?
Its AUC is 0.498.

And the pIC50 (RDEA119; screen: GDSC drug entry 1014)?
Its pIC50 is 6.51.

What about the AUC (RDEA119; screen: GDSC drug entry 1526) of the same cell line?
Its AUC is 0.663.

What about the pIC50 (RDEA119; screen: GDSC drug entry 1526) of the same cell line?
The pIC50 was 6.02.

And the AUC (JNK-9L)?
Its AUC is 0.656.

What about the pIC50 (JNK-9L) of the same cell line?
Its pIC50 is 6.03.

And the AUC (OSU-03012)?
The AUC was 0.758.

What about the pIC50 (OSU-03012) of the same cell line?
Its pIC50 is 5.20.

And the AUC (5-Fluorouracil)?
Its AUC is 0.892.

And the pIC50 (5-Fluorouracil)?
The pIC50 was < 4.49.

What about the AUC (QS11) of the same cell line?
The AUC was 0.983.

And the pIC50 (QS11)?
The pIC50 was < 4.99.

For OPM-2 (myeloma, suspension), which AUC (CUDC-101) is on record?
The AUC was 0.467.

What about the pIC50 (CUDC-101) of the same cell line?
The pIC50 was 6.58.

What about the AUC (AC220) of the same cell line?
Its AUC is 0.992.

And the pIC50 (AC220)?
The pIC50 was < 5.99.

And the AUC (RDEA119; screen: GDSC drug entry 1014)?
The AUC was 0.982.

What about the pIC50 (RDEA119; screen: GDSC drug entry 1014) of the same cell line?
Its pIC50 is < 5.30.

And the AUC (RDEA119; screen: GDSC drug entry 1526)?
The AUC was 0.992.

What about the pIC50 (RDEA119; screen: GDSC drug entry 1526) of the same cell line?
Its pIC50 is < 5.30.

What about the AUC (JNK-9L) of the same cell line?
Its AUC is 0.581.

And the AUC (OSU-03012)?
The AUC was 0.868.

What about the pIC50 (OSU-03012) of the same cell line?
Its pIC50 is 4.99.

And the AUC (5-Fluorouracil)?
The AUC was 0.792.

What about the pIC50 (5-Fluorouracil) of the same cell line?
Its pIC50 is 4.94.

What about the AUC (QS11) of the same cell line?
The AUC was 0.963.

What about the pIC50 (QS11) of the same cell line?
The pIC50 was < 4.99.

What does the source list for PANC-10-05 (pancreas, adherent)?
AUC (CUDC-101): 0.528; pIC50 (CUDC-101): 6.41; AUC (AC220): 0.962; pIC50 (AC220): < 5.99; AUC (RDEA119; screen: GDSC drug entry 1526): 0.731; pIC50 (RDEA119; screen: GDSC drug entry 1526): 5.76; AUC (JNK-9L): 0.576; pIC50 (JNK-9L): 6.26; AUC (OSU-03012): 0.757; pIC50 (OSU-03012): 5.16; AUC (5-Fluorouracil): 0.696; pIC50 (5-Fluorouracil): 5.08; AUC (QS11): 0.976; pIC50 (QS11): < 4.99

What does the source list for SU-DHL-5 (B-cell lymphoma, suspension)?
AUC (CUDC-101): 0.158; pIC50 (CUDC-101): 7.36; AUC (AC220): 0.961; pIC50 (AC220): < 5.99; AUC (RDEA119; screen: GDSC drug entry 1014): 0.889; pIC50 (RDEA119; screen: GDSC drug entry 1014): 5.49; AUC (RDEA119; screen: GDSC drug entry 1526): 0.915; pIC50 (RDEA119; screen: GDSC drug entry 1526): 5.39; AUC (JNK-9L): 0.451; pIC50 (JNK-9L): 6.61; AUC (OSU-03012): 0.485; pIC50 (OSU-03012): 6.04; AUC (5-Fluorouracil): 0.698; pIC50 (5-Fluorouracil): 5.21; AUC (QS11): 0.732; pIC50 (QS11): 5.62

Which AUC (CUDC-101) does the source give for VMRC-RCZ (kidney, adherent) here?
The AUC was 0.814.

And the pIC50 (CUDC-101)?
The pIC50 was 5.47.

And the AUC (AC220)?
The AUC was 0.98.

What about the pIC50 (AC220) of the same cell line?
The pIC50 was < 5.99.

And the AUC (RDEA119; screen: GDSC drug entry 1014)?
Its AUC is 0.851.

And the pIC50 (RDEA119; screen: GDSC drug entry 1014)?
The pIC50 was 5.32.

And the AUC (RDEA119; screen: GDSC drug entry 1526)?
Its AUC is 0.896.

And the pIC50 (RDEA119; screen: GDSC drug entry 1526)?
The pIC50 was < 5.30.

And the AUC (JNK-9L)?
Its AUC is 0.55.

And the pIC50 (JNK-9L)?
Its pIC50 is 6.35.

What about the AUC (OSU-03012) of the same cell line?
The AUC was 0.688.

What about the pIC50 (OSU-03012) of the same cell line?
Its pIC50 is 5.43.

And the AUC (5-Fluorouracil)?
The AUC was 0.966.

What about the pIC50 (5-Fluorouracil) of the same cell line?
The pIC50 was < 4.49.

And the AUC (QS11)?
The AUC was 0.869.

What about the pIC50 (QS11) of the same cell line?
The pIC50 was < 4.99.

Which AUC (CUDC-101) does the source give for SK-PN-DW (Ewing sarcoma, adherent) here?
The AUC was 0.515.

What about the pIC50 (CUDC-101) of the same cell line?
The pIC50 was 6.45.

And the AUC (AC220)?
Its AUC is 0.971.

What about the pIC50 (AC220) of the same cell line?
Its pIC50 is < 5.99.

And the AUC (RDEA119; screen: GDSC drug entry 1014)?
Its AUC is 0.986.

And the pIC50 (RDEA119; screen: GDSC drug entry 1014)?
The pIC50 was < 5.30.

What about the AUC (RDEA119; screen: GDSC drug entry 1526) of the same cell line?
Its AUC is 0.982.

And the pIC50 (RDEA119; screen: GDSC drug entry 1526)?
Its pIC50 is < 5.30.

And the AUC (JNK-9L)?
The AUC was 0.636.

What about the pIC50 (JNK-9L) of the same cell line?
Its pIC50 is 6.11.

And the AUC (OSU-03012)?
Its AUC is 0.635.

What about the pIC50 (OSU-03012) of the same cell line?
Its pIC50 is 5.62.

What about the AUC (5-Fluorouracil) of the same cell line?
Its AUC is 0.721.

And the pIC50 (5-Fluorouracil)?
Its pIC50 is 5.06.

What about the AUC (QS11) of the same cell line?
Its AUC is 0.806.

Which AUC (CUDC-101) does the source give for OSC-20 (head and neck, adherent) here?
Its AUC is 0.559.

What about the pIC50 (CUDC-101) of the same cell line?
The pIC50 was 6.32.

And the AUC (AC220)?
The AUC was 0.98.

What about the pIC50 (AC220) of the same cell line?
The pIC50 was < 5.99.

And the AUC (RDEA119; screen: GDSC drug entry 1014)?
The AUC was 0.874.

And the pIC50 (RDEA119; screen: GDSC drug entry 1014)?
The pIC50 was < 5.30.

What about the AUC (RDEA119; screen: GDSC drug entry 1526) of the same cell line?
The AUC was 0.88.

And the pIC50 (RDEA119; screen: GDSC drug entry 1526)?
The pIC50 was < 5.30.

What about the AUC (JNK-9L) of the same cell line?
Its AUC is 0.545.

What about the pIC50 (JNK-9L) of the same cell line?
The pIC50 was 6.36.

And the AUC (OSU-03012)?
The AUC was 0.559.

What about the pIC50 (OSU-03012) of the same cell line?
The pIC50 was 5.83.

And the AUC (5-Fluorouracil)?
The AUC was 0.877.

And the pIC50 (5-Fluorouracil)?
The pIC50 was < 4.49.

And the AUC (QS11)?
The AUC was 0.796.

And the pIC50 (QS11)?
Its pIC50 is 5.23.

With “RPMI-6666 (Hodgkin lymphoma, suspension)” as the cell line, how does the AUC (CUDC-101) read?
Its AUC is 0.287.

What about the pIC50 (CUDC-101) of the same cell line?
The pIC50 was 7.15.

What about the AUC (AC220) of the same cell line?
Its AUC is 0.921.

And the pIC50 (AC220)?
Its pIC50 is < 5.99.

What about the AUC (RDEA119; screen: GDSC drug entry 1014) of the same cell line?
Its AUC is 0.922.

And the pIC50 (RDEA119; screen: GDSC drug entry 1014)?
Its pIC50 is < 5.30.

What about the AUC (RDEA119; screen: GDSC drug entry 1526) of the same cell line?
The AUC was 0.929.

What about the pIC50 (RDEA119; screen: GDSC drug entry 1526) of the same cell line?
The pIC50 was < 5.30.

And the AUC (JNK-9L)?
Its AUC is 0.459.

What about the pIC50 (JNK-9L) of the same cell line?
The pIC50 was 6.62.

And the AUC (OSU-03012)?
Its AUC is 0.711.

And the pIC50 (OSU-03012)?
The pIC50 was 5.34.

And the AUC (5-Fluorouracil)?
The AUC was 0.335.

And the pIC50 (5-Fluorouracil)?
Its pIC50 is 6.20.

And the AUC (QS11)?
Its AUC is 0.966.

What about the pIC50 (QS11) of the same cell line?
The pIC50 was < 4.99.
